Experimental data from the supplement of paper PMC12217912.
Some of the results follow. Sequences were assembled here from the parent chain. Values near 0.05 are background.

B1: TEV protease; numbered along this chain (parent)
chain: MGESLFKGPRDYNPISSSICHLTNESDGHTTSLYGIGFGPFIITNKHLFRRNNGTLVVQSLHGVFKVKDTTTLQQHLVDGRDMIIIRMPKDFPPFPQKLKFREPQREERICLVTTNFQTKSMSSMVSDTSCTFPSGDGIFWKHWIQTKDGQCGSPLVSTRDGFIVGIHSASNFTNTNNYFTSVPKNFMELLTNQEAQQWVSGWRLNADSVLWGGHKVFMVKPEEPFQPVKEATQL

Variants of: B1
Experiment: raw area under fraction-flipped curve 0-4 h after induction (AUC4h, not background-subtracted), DNA-recorder readout of cleavage of the substrate (dimensionless); higher = more cleavage of the substrate by the protease variant
Settings: temperature: 34 °C; time window: 0-4 h after rhamnose induction
Procedure: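 In vivo DNA recorder in E. coli TOP10(DE3) ΔrhaA at 34 °C. Each TEVp single-site mutant (parent TEVp 0) is paired with a single-site variant of the 7-mer TEVs (canonical ENLYFQ|S). The substrate sits between flexible linkers in a Bxb1-sfGFP-TEVs-SsrA fusion, so cleavage stabilises Bxb1 and speeds flipping of a recombination array, read by NGS. The value is the raw area under the fraction-flipped curve over 0-4 h after rhamnose induction (AUC4h), with ≥20 reads per time point. It is not background-subtracted; inactive controls average about 0.047.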
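Also: Bxb1 expression induced with 0.2% (w/v) L-rhamnose at OD600 near 0.5, cultures sampled hourly, flipped fraction per protease–substrate barcode pair counted by paired-end Illumina sequencing.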

Row | Variant | area with substrate EALYFQS | area with substrate ECLYFQS | area with substrate EDLYFQS | area with substrate EILYFQS | area with substrate ELLYFQS | area with substrate EPLYFQS | area with substrate EQLYFQS | area with substrate ESLYFQS | area with substrate ETLYFQS | area with substrate EELYFQS | area with substrate EGLYFQS | area with substrate EKLYFQS | area with substrate EMLYFQS | area with substrate ERLYFQS | area with substrate EVLYFQS | area with substrate EWLYFQS | area with substrate EFLYFQS | area with substrate EHLYFQS | area with substrate EYLYFQS
1 | N186M | 0.105 | 0.0893 | 0.136 | 0.176 | 0.0545 | 0.105 | 0.103 | 0.0973 | 0.109 | – | – | – | – | – | – | – | – | – | –
2 | C111Y | 0.13 | 0.0896 | – | – | 0.0751 | – | 0.119 | – | 0.114 | 0.0948 | 0.0717 | 0.113 | 0.134 | 0.129 | 0.0924 | – | – | – | –
3 | V217Q | 0.0775 | 0.0468 | – | 0.0426 | 0.0565 | 0.0665 | – | 0.0534 | – | – | 0.0556 | 0.0654 | 0.0187 | 0.0646 | 0.059 | 0.065 | – | – | –
4 | D27Q | 0.15 | 0.0404 | 0.111 | – | 0.0988 | 0.113 | 0.103 | 0.0694 | – | 0.0687 | – | 0.11 | 0.107 | 0.0911 | 0.0652 | – | 0.0963 | – | –
5 | T71C | 0.0891 | 0.093 | 0.1 | 0.107 | – | 0.11 | 0.108 | 0.118 | – | – | – | 0.114 | 0.104 | – | – | 0.118 | – | 0.104 | 0.0919
6 | E103A | 0.13 | – | 0.123 | 0.11 | – | 0.131 | – | 0.131 | – | 0.112 | 0.108 | – | – | – | 0.0882 | 0.0929 | – | – | 0.101
7 | H143R | 0.0517 | 0.0495 | 0.0743 | 0.0525 | – | 0.114 | 0.048 | 0.0584 | 0.0426 | 0.0527 | 0.0587 | 0.0614 | 0.0549 | 0.0609 | 0.0628 | 0.0676 | – | 0.0468 | 0.0409
8 | G166V | 0.0458 | 0.0293 | – | – | – | 0.0544 | 0.0543 | 0.0528 | – | 0.0616 | – | – | – | 0.0511 | 0.0645 | – | – | – | 0.0467
9 | V220P | 0.121 | 0.0763 | 0.135 | 0.0704 | 0.0634 | 0.0959 | 0.0819 | 0.0862 | 0.125 | 0.112 | 0.0731 | 0.0773 | 0.0858 | 0.0709 | 0.0753 | 0.0897 | – | 0.0775 | –
10 | T115N | 0.0802 | 0.12 | – | 0.0605 | 0.0933 | 0.0748 | 0.0527 | 0.148 | – | 0.157 | 0.138 | 0.105 | – | – | – | 0.0646 | – | 0.0611 | –
11 | I36A | 0.0817 | 0.0658 | 0.0914 | 0.0677 | 0.0703 | 0.0863 | 0.063 | 0.0795 | – | 0.0819 | 0.0779 | 0.0776 | 0.0837 | 0.0674 | 0.0623 | – | – | 0.0791 | –
12 | G150R | 0.0615 | 0.0593 | 0.0534 | 0.0593 | 0.0498 | 0.0523 | 0.0576 | 0.0642 | 0.086 | 0.0635 | 0.065 | 0.0702 | 0.0712 | 0.0546 | 0.0285 | 0.0557 | – | 0.0598 | 0.0404
13 | S4R | 0.13 | 0.0961 | 0.176 | 0.0972 | 0.126 | 0.056 | 0.162 | 0.134 | – | 0.165 | – | 0.14 | 0.157 | 0.0337 | 0.12 | – | – | – | 0.145
14 | I36D | 0.0404 | 0.0418 | 0.0427 | 0.0376 | 0.05 | 0.0456 | 0.0508 | 0.0428 | 0.0478 | 0.0264 | 0.0431 | – | 0.0279 | 0.0502 | 0.0398 | 0.0344 | – | – | 0.056
15 | Y12S | 0.115 | 0.0878 | 0.106 | 0.0823 | 0.0869 | 0.0984 | 0.0981 | 0.0893 | 0.115 | 0.081 | 0.0838 | 0.0902 | 0.116 | 0.0903 | 0.0885 | – | – | – | –
16 | N175C | 0.119 | 0.0928 | 0.0028 | – | 0.123 | – | 0.111 | 0.0822 | – | 0.0591 | 0.0934 | – | 0.0903 | 0.0869 | 0.0968 | – | – | 0.115 | –
17 | M122Q | 0.129 | 0.0886 | 0.119 | – | 0.102 | – | 0.132 | 0.0973 | 0.154 | – | – | 0.105 | 0.0973 | – | 0.101 | 0.101 | 0.122 | 0.115 | 0.0617
18 | E103Q | 0.114 | 0.096 | 0.0929 | 0.0784 | 0.087 | 0.148 | 0.1 | 0.0976 | 0.129 | 0.112 | 0.0887 | 0.121 | 0.109 | 0.109 | 0.106 | 0.0967 | – | 0.0883 | 0.107
19 | T71W | 0.118 | 0.0766 | – | 0.078 | – | 0.0883 | 0.126 | 0.0762 | – | 0.0958 | 0.0788 | 0.0826 | – | – | 0.0867 | 0.168 | – | 0.0945 | –
20 | L77S | 0.08 | 0.0807 | 0.0921 | 0.072 | 0.062 | 0.0687 | 0.0791 | 0.0812 | – | 0.0676 | 0.0621 | 0.0811 | 0.0833 | 0.0785 | 0.0675 | 0.073 | – | 0.0927 | –
21 | V126F | 0.185 | 0.121 | – | 0.1 | 0.11 | 0.146 | 0.156 | 0.112 | 0.16 | – | – | 0.116 | – | 0.111 | 0.0895 | 0.101 | – | 0.136 | 0.112
22 | N13R | 0.112 | 0.103 | – | 0.101 | – | – | – | 0.0968 | 0.125 | 0.117 | 0.0938 | 0.117 | 0.132 | 0.104 | 0.112 | – | 0.0986 | 0.153 | 0.116
23 | H62D | 0.109 | 0.0949 | 0.111 | 0.089 | – | – | 0.117 | 0.0984 | 0.0978 | 0.0995 | 0.0838 | 0.0931 | – | 0.0908 | 0.0983 | 0.0609 | – | 0.106 | 0.111
24 | S123K | 0.131 | 0.0837 | – | 0.1 | 0.101 | 0.14 | 0.132 | 0.12 | – | 0.149 | 0.115 | 0.0951 | – | 0.0915 | 0.102 | 0.102 | 0.13 | 0.143 | –
25 | D137L | 0.0589 | 0.0786 | 0.118 | 0.0869 | – | 0.105 | – | 0.0837 | 0.117 | 0.0932 | 0.106 | – | – | 0.078 | 0.1 | 0.0896 | – | 0.122 | 0.111
